Assay results from paper PMC4336329 (PLoS ONE, 2015).
About 2,200 (0.71%) of roughly 310,000 compounds showed an effect of 50% or more. The effect is printed as a negative number. This is one part of the list.

Biological target: human ether-à-go-go-related gene (hERG) potassium channel (human, UniProt Q12809)
Test: primary screen, population patch clamp on CHO cells stably expressing hERG

Chain of human ether-à-go-go-related gene (hERG) potassium channel (Q12809 whole entry, looked up): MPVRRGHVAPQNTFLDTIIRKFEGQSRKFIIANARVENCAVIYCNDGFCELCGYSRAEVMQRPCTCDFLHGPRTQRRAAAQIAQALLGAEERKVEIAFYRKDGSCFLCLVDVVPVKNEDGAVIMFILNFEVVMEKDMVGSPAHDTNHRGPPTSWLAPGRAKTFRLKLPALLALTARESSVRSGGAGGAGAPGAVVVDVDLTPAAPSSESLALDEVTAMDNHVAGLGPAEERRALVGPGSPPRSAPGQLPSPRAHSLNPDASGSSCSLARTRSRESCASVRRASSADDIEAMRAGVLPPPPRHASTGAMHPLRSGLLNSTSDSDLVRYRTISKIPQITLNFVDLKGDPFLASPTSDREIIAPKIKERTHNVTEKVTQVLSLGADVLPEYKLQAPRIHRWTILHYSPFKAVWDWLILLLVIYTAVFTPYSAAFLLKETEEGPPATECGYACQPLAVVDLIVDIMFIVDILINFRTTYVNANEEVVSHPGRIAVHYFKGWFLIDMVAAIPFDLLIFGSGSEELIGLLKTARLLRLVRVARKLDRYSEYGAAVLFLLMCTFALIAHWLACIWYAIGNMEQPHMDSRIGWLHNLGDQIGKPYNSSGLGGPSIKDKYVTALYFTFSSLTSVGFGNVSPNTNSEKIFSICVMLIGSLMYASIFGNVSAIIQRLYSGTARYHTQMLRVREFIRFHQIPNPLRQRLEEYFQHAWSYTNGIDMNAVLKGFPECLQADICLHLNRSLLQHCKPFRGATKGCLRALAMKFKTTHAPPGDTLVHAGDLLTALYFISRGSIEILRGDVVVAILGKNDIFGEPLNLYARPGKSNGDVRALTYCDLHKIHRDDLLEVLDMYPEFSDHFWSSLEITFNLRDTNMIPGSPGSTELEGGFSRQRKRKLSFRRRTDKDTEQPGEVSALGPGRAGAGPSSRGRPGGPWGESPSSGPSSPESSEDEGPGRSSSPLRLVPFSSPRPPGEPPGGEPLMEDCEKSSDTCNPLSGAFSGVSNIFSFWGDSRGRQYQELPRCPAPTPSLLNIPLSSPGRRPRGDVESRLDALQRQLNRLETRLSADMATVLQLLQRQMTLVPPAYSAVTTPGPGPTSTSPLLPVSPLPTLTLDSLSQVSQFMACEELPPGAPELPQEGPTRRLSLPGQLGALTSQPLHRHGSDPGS

First: CCN(CC(=O)Nc1ccccc1C(F)(F)F)C(=O)CSCc1c(C)noc1C
Second: CCc1ccccc1NC(=O)CN(C)Cc1c(O)ccc2ccccc12
The “hERG current change (%, negative = inhibition) at 1uM” value of the first is lower: 4.47% for the first, 10.3% for the second.

First: CCN1C(=O)NC(c2ccccc2)C1=O (stereo not shown)
Second: CC(C)OCCCN1CC(=O)N2C(c3ccccc3)c3[nH]c4ccccc4c3C[C@H]2C1=O (stereo partly shown)
The “hERG current change (%, negative = inhibition) at 1uM” value of the first is higher: 16.8% for the first, -1.53% for the second.

Compared with `O=C1c2ccccc2C(=O)N1CCc1ccccn1`, `COc1ccccc1Oc1ccc2c(c1)C(=O)N(CC(=O)O)C2=O` is lower in “hERG current change (%, negative = inhibition) at 1uM” value: 16.1% for the first, 12% for the second.

First: CCN1C(=O)/C(=C/c2ccc(C)s2)SC1=Nc1ccc(OC)cc1
Second: COc1ccc(C2NN=C(c3ccc(C)cc3)S2)cc1 (stereo not shown)
The “hERG current change (%, negative = inhibition) at 1uM” value of the first is lower: -1.24% for the first, 11.7% for the second.

First: O=S(=O)(c1ccc(Cl)cc1)N1CCC2(CC1)OCCO2
Second: Cc1ccc(Nc2ccc(S(=O)(=O)N3CCOCC3)cc2[N+](=O)[O-])c(C)c1
The “hERG current change (%, negative = inhibition) at 1uM” value of the first is higher: 2.73% for the first, 0.103% for the second.

Going from `Cc1cccc(N=C2NN=C(c3c(C)[nH]c4ccccc34)CS2)c1` to `Cc1ccc2c(c1)N=C(c1ccccc1)CC(C(Cl)Cl)=N2`, the “hERG current change (%, negative = inhibition) at 1uM” value falls from 17.4% to 17%.

Going from `CC(C)c1onc(C(=O)N2CCN(Cc3ccccc3)CC2)c1[N+](=O)[O-]` to `Cc1ccc2[nH]c(C(=O)N3CCN(C=O)CC3)cc2c1`, the “hERG current change (%, negative = inhibition) at 1uM” value rises from 1.48% to 13.1%.

Going from `O=c1c2cc(N3CCOCC3)ccc2[nH]c(=S)n1CCc1ccccc1` to `O=C(COC(=O)c1ccc(F)cc1)Nc1ccccc1N1CCOCC1`, the “hERG current change (%, negative = inhibition) at 1uM” value falls from 4.9% to 4.75%.

First: Cc1ccc(C2C3=C(CC(C)(C)CC3=O)NC3=C2C(=O)CC(C)(C)C3)o1
Second: Cc1ccc(C2=Nc3ccccc3NC(C)(c3ccc(C)o3)C2)o1 (stereo not shown)
The “hERG current change (%, negative = inhibition) at 1uM” value of the first is higher: 9% for the first, 3.88% for the second.

Going from `CC(C)NC(=O)CN1C(=O)c2cccc3cccc1c23` to `O=C(COC(=O)c1ccccn1)Nc1cccc2ccccc12`, the “hERG current change (%, negative = inhibition) at 1uM” value rises from -0.827% to 17.5%.

First: O=C(N/N=C/c1sc(N2CCOCC2)nc1-c1ccccc1)c1ccccc1Cl
Second: Cc1cc(C(=O)OCC(=O)N2CCN(c3ccccc3)CC2)c2ccccc2n1
The “hERG current change (%, negative = inhibition) at 1uM” value of the first is lower: 9.97% for the first, 13% for the second.

Compared with `O=C(Cc1ccccc1)NCCSC1CCCCC1`, `O=C(CSc1nnc(-c2ccccc2O)o1)NC1CCCCC1` is lower in “hERG current change (%, negative = inhibition) at 1uM” value: 12.3% for the first, 10.2% for the second.

Going from `CCOc1ccc(/C=C2/Sc3ccc(C(=O)NCC4CCCO4)cc3N(C)C2=O)cc1OC` (stereo not shown) to `CCOc1ccc(CCNC(=O)c2nnn(CC(=O)Nc3ccc(OC)c(OC)c3)c2N)cc1OCC`, the “hERG current change (%, negative = inhibition) at 1uM” value rises from 10.1% to 14.5%.

Compared with `Cc1nnc(SCC2=C(C(=O)O)N3C(=O)C(NC(=O)Cn4nc(C(F)F)c(Cl)c4C)C3SC2)s1` (stereo not shown), `Cc1ccc(-c2nnc(CSc3nnc(C)s3)o2)cc1` is lower in “hERG current change (%, negative = inhibition) at 1uM” value: 5.02% for the first, -0.13% for the second.

Going from `Cc1ccccc1-n1c(-c2ccc3ccccc3n2)n[nH]c1=S` to `N=c1oc2ccccc2cc1-c1nc(-c2ccc(Cl)cc2)cs1`, the “hERG current change (%, negative = inhibition) at 1uM” value falls from 10.8% to 8.79%.

Compared with `COc1ccc2cc(C3CC(c4ccco4)=NN3S(=O)(=O)c3ccccc3)c(Cl)nc2c1` (stereo not shown), `Cc1cccc(N(C2C=CS(=O)(=O)C2)S(=O)(=O)c2ccccc2)c1` (stereo not shown) is higher in “hERG current change (%, negative = inhibition) at 1uM” value: 11.4% for the first, 14.2% for the second.

First: O=C(CN1C(=O)NC2(CCCC2)C1=O)N1CCN(S(=O)(=O)c2ccccc2Br)CC1
Second: CC(C)c1ccc(S(=O)(=O)N2CCN(C(=O)CN3C(=O)NC4(CCCCC4)C3=O)CC2)cc1
The “hERG current change (%, negative = inhibition) at 1uM” value of the first is lower: 3.93% for the first, 8.14% for the second.

First: Cc1ccc(F)cc1NC(=O)CCC(=O)c1cccs1
Second: O=C(CCC(=O)N1CCOCC1)c1ccc(F)cc1
The “hERG current change (%, negative = inhibition) at 1uM” value of the first is lower: 10.6% for the first, 21% for the second.

Compared with `COC(=O)c1ccccc1NC(=O)CNc1cc(OC)c(OC)cc1C`, `Cc1ccc(NC(=O)COC(=O)c2c(C)nn(-c3ccccc3)c2C)cc1` is higher in “hERG current change (%, negative = inhibition) at 1uM” value: -11.1% for the first, 14.4% for the second.

Going from `C=CCN1CC(C(=O)N2CCC(Cc3ccc(Cl)cc3)(C(=O)OCC)CC2)CC1=O` (stereo not shown) to `Cc1ccsc1C(=O)C1CCCN(Cc2ccc(-n3cccn3)cc2)C1` (stereo not shown), the “hERG current change (%, negative = inhibition) at 1uM” value rises from -22.1% to -3.18%.

Going from `CCc1ccc2nc(N(CCN(C)C)C(=O)c3ccc4ccccc4c3)sc2c1.Cl` to `CCn1c(SCC(=O)Nc2ccc(C(C)=O)cc2)nc2c([nH]c3ccccc32)c1=O`, the “hERG current change (%, negative = inhibition) at 1uM” value rises from 8.31% to 15.3%.

Going from `CCOc1ccc(-n2nc3ccc(N)cc3n2)cc1` to `CCOc1ccc(C(=O)N(C)C2CCS(=O)(=O)C2)cc1` (stereo not shown), the “hERG current change (%, negative = inhibition) at 1uM” value rises from 11.9% to 21.6%.

Compared with `Cc1c(C)c2ccc(OC(C)C(=O)NCCCn3ccnc3)c(C)c2oc1=O` (stereo not shown), `Cc1cccc(C(=O)OC(C)C(=O)Nc2ccc(S(=O)(=O)Nc3ncccn3)cc2)c1C` (stereo not shown) is lower in “hERG current change (%, negative = inhibition) at 1uM” value: 5.94% for the first, 5.04% for the second.

First: CC(=Nc1ccccc1)C1=C(O)CCCC1=O
Second: CCC(C(=O)NC1CCN(C)CC1)c1ccccc1 (stereo not shown)
The “hERG current change (%, negative = inhibition) at 1uM” value of the first is lower: 16.2% for the first, 17% for the second.

Going from `Cc1ccc(N2C(=O)c3n[nH]c(C)c3C2c2cccnc2)cc1` (stereo not shown) to `Cc1cccc(N(C)c2ncnc3onc(-c4ccc(F)cc4)c23)c1C`, the “hERG current change (%, negative = inhibition) at 1uM” value rises from 7.27% to 14.1%.

First: O=C(NCC(=O)N(Cc1cccs1)C(C(=O)NC1CCCCC1)c1ccco1)c1ccco1 (stereo not shown)
Second: O=C(O)C(=O)O.O=S(=O)(c1cccc(C(F)(F)F)c1)N(CCCN1CCOCC1)Cc1cccs1
The “hERG current change (%, negative = inhibition) at 1uM” value of the first is higher: -1.29% for the first, -16.5% for the second.

Going from `O=C(COC(=O)CNC(=O)c1ccc(Cl)c([N+](=O)[O-])c1)NC(=O)c1ccccc1` to `CCN(C(=O)COC(=O)/C=C/c1cccc([N+](=O)[O-])c1)c1ccccc1`, the “hERG current change (%, negative = inhibition) at 1uM” value falls from 9.95% to 8.36%.

Going from `Cc1cccc(NC(=O)C(=O)NCC2CCCN2S(=O)(=O)c2ccccc2)c1` (stereo not shown) to `CCOC(=O)Nc1ccc2c(c1)Sc1ccccc1N2C(=O)CCN1CCOCC1`, the “hERG current change (%, negative = inhibition) at 1uM” value falls from 12.8% to 3.45%.

First: N#Cc1c2c(c(NCc3cccnc3)n3c1nc1ccccc13)CCC2
Second: Cc1cc(Nc2c(C)n(C)n(-c3ccccc3)c2=O)n2c(nc3ccccc32)c1C#N
The “hERG current change (%, negative = inhibition) at 1uM” value of the first is higher: -5.45% for the first, -9.52% for the second.

Going from `CC(O)CNCCCOc1ccc(Cl)cc1C(C)(C)C.O=C(O)C(=O)O` (stereo not shown) to `CCn1c(=O)c(C(=O)NCCNCCO)c(O)c2ccccc21.Cl`, the “hERG current change (%, negative = inhibition) at 1uM” value falls from 11.6% to 8.64%.

First: Cc1ccccc1NC1=NC(C)(C)N=C(N)N1
Second: Cc1ccc(C)c(N(Cc2ccccc2F)S(C)(=O)=O)c1
The “hERG current change (%, negative = inhibition) at 1uM” value of the first is higher: 16.8% for the first, -0.496% for the second.

Compared with `Nc1c(C(=O)NCCN2CCOCC2)c2nc3ccccc3nc2n1Cc1ccco1`, `Cc1cccn2c(CNC3CCCc4ccccc43)c(C(=O)N3CCOCC3)nc12` (stereo not shown) is higher in “hERG current change (%, negative = inhibition) at 1uM” value: -42.6% for the first, 10.7% for the second.

Compared with `CCCCCCn1c(N2CCN(c3ccccc3)CC2)nc2c1c(=O)n(C)c(=O)n2C`, `CCCCn1c(N)c(N(CC(C)C)C(=O)Cn2c(=O)cnc3ccccc32)c(=O)[nH]c1=O` is higher in “hERG current change (%, negative = inhibition) at 1uM” value: -8.66% for the first, 16.5% for the second.

Going from `CSc1ccc(CN2CCC(Cc3ccccc3)CC2)cc1` to `N/C(=N\OC(=O)c1ccc(F)cc1)c1ccccc1`, the “hERG current change (%, negative = inhibition) at 1uM” value rises from -29.6% to 3.31%.

Compared with `C=C(C)C1(O)OC(=O)C=C1OC` (stereo not shown), `CCOC(=O)c1c2ccccc2[n+]([O-])n1[C@@H](C)C(N)=O` is higher in “hERG current change (%, negative = inhibition) at 1uM” value: 5.4% for the first, 11.1% for the second.

Compared with `CN(N)C(=S)Nc1ccc(F)cc1`, `C=CCNC(=S)N/N=C/c1ccc(-c2ccc(Cl)cc2Cl)o1` is lower in “hERG current change (%, negative = inhibition) at 1uM” value: 10.7% for the first, 4.99% for the second.

Going from `Cc1ccnc(-n2c(C)cc(/C=N/NC(=O)COc3cccc4cccnc34)c2C)c1` to `Cc1ccc(N(C(=O)c2cc3ccccc3oc2=O)C2C=CS(=O)(=O)C2)cc1` (stereo not shown), the “hERG current change (%, negative = inhibition) at 1uM” value rises from 10.9% to 11.9%.

First: CC(=O)c1ccc(OCc2cc(C(=O)N3CCC[C@H]3CO)no2)cc1
Second: COc1ccc2[nH]cc(C3=CCNCC3)c2c1.O=C(O)CCC(=O)O
The “hERG current change (%, negative = inhibition) at 1uM” value of the first is higher: 10.5% for the first, 6.52% for the second.

Compared with `CCCCn1nc2cc(C(=O)N[C@H](C)C3CCCCC3)ccc2c1OCC`, `CCCCNC(=O)c1ccc2c(c1)ncn2C1CCCCC1` is lower in “hERG current change (%, negative = inhibition) at 1uM” value: 15.9% for the first, -2.2% for the second.

First: CCN1C/C(=C/c2sccc2C)c2nc3ccccc3c(C(=O)O)c2C1.Cl
Second: C=CCn1c(SCn2nnc3ccccc3c2=O)nnc1-c1ccc(F)cc1
The “hERG current change (%, negative = inhibition) at 1uM” value of the first is higher: 9.21% for the first, -7.02% for the second.

Going from `O=C(c1ccc(CSCc2ccccc2F)o1)N1CCN(c2ccc(N3CCOCC3)nn2)CC1` to `Cn1c(=O)[nH]c(=O)c2c1nc(SCc1ccccc1Cl)n2CC(N)=O`, the “hERG current change (%, negative = inhibition) at 1uM” value rises from -25% to 14.3%.

Going from `F[B-](F)(F)F.OCCCCC[NH+]=c1cc(-c2ccccc2)oc2ccc(Cl)cc12` to `COc1ccccc1NC(=O)CC1COc2ccccc2O1` (stereo not shown), the “hERG current change (%, negative = inhibition) at 1uM” value rises from -86.1% to 12.3%.

Going from `COc1ccc(NC(=O)C(C)N(c2ccc(C)cc2)S(C)(=O)=O)c(OC)c1` (stereo not shown) to `O=C(Oc1ccccc1)N(c1ccccc1)c1ccccc1`, the “hERG current change (%, negative = inhibition) at 1uM” value rises from -9.45% to 8.1%.

Going from `Nc1nnc(SCC(=O)Nc2cccnc2Cl)s1` to `Cn1c(=NC(=O)C2CCCCC2)sc2cc([N+](=O)[O-])ccc21`, the “hERG current change (%, negative = inhibition) at 1uM” value falls from 22.3% to 17.1%.
